Reference: publication PMC4336329 (PLoS ONE, 2015)
About 2,200 (0.71%) of roughly 310,000 compounds showed an effect of 50% or more. The effect is printed as a negative number. The list shows a part of the results.

biological target: human ether-à-go-go-related gene (hERG) potassium channel (human, UniProt Q12809); assay: primary screen, population patch clamp on CHO cells stably expressing hERG
Sequence (Q12809 whole entry, looked up): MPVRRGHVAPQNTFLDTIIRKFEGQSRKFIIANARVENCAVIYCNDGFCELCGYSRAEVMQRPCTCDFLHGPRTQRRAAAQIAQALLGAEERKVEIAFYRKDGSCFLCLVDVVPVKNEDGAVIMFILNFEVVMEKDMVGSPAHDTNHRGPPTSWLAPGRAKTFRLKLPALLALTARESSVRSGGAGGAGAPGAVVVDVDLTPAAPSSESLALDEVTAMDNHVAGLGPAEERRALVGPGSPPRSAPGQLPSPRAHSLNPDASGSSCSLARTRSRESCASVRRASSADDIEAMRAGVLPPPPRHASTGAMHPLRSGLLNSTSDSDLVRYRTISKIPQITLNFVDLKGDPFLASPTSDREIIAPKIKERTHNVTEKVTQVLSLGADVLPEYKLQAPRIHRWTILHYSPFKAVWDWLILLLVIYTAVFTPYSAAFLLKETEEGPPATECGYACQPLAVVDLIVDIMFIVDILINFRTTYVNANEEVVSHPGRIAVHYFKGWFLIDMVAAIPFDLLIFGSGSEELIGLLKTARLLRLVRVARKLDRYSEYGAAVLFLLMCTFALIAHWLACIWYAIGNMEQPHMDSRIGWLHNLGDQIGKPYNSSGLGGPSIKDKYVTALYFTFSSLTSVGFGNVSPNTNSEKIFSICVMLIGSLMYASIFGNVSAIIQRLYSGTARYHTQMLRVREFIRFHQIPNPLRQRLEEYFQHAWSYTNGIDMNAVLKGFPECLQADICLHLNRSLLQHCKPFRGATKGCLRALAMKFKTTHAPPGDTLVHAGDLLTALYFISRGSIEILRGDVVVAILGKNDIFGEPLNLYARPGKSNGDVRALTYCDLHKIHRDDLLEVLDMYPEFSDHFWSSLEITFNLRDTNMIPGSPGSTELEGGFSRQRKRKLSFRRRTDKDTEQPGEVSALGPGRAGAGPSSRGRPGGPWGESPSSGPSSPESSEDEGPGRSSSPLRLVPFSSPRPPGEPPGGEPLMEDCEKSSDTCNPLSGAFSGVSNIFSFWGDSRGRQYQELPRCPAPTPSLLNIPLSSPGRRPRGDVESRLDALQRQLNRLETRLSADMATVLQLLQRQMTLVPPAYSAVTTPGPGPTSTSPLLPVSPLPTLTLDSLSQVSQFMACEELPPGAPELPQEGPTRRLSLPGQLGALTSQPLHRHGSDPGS

For `Cl.O=C(OCCN1CCCCC1)c1c[nH]c2ccccc12`, which “hERG current change (%, negative = inhibition) at 1uM” value is on record?
Its value is -4.63%.

`CCn1c(O)c(N=NC(=O)Cn2ccc(C(F)(F)F)n2)c2ccccc21` was tested. Which “hERG current change (%, negative = inhibition) at 1uM” value did it give?
The value was 1.07%.

With `Cc1ncc(CN2CCC(N3CCC(C(=O)N4CCCC4)CC3)CC2)s1` as the molecule, how does the “hERG current change (%, negative = inhibition) at 1uM” value read?
The value was 8.78%.

With `CCOc1ccc(NC(=O)C2CC(=O)N(C)C(=Nc3ccc4c(c3)OCO4)S2)cc1` (centres unmarked) as the molecule, how does the “hERG current change (%, negative = inhibition) at 1uM” value read?
Its value is 14.6%.

With `CN1C(=O)NC(c2ccc(C(F)(F)F)cc2)C2=C1CC(C)(C)CC2=O` (centres unmarked) as the molecule, how does the “hERG current change (%, negative = inhibition) at 1uM” value read?
The value was 2.15%.

How did the “hERG current change (%, negative = inhibition) at 1uM” value turn out when `c1ccc(Cc2nc3ccccc3o2)cc1` was run?
The value was 15%.

How did the “hERG current change (%, negative = inhibition) at 1uM” value turn out when `O=C(Nc1ccc(Br)cc1)Nn1cnnc1` was run?
The value was 15.1%.

How did the “hERG current change (%, negative = inhibition) at 1uM” value turn out when `O=C(O)c1ccccc1NC(=O)C1CCN(S(=O)(=O)c2cccc3nsnc23)CC1` was run?
The value was 14.1%.

How did the “hERG current change (%, negative = inhibition) at 1uM” value turn out when `COc1ccc(/C=N/NC(=O)c2ccc(COCC(F)(F)C(F)F)cc2)cc1` was run?
Its value is 8.85%.

Which “hERG current change (%, negative = inhibition) at 1uM” value does the source give for `Nc1n[nH]c2cc(=O)n(-c3cccc(C(F)(F)F)c3)nc12` here?
The value was 12.3%.

With `O=C(COc1ccccc1Cl)NC(=S)N1CCc2ccccc21` as the molecule, how does the “hERG current change (%, negative = inhibition) at 1uM” value read?
Its value is -9.6%.

How did the “hERG current change (%, negative = inhibition) at 1uM” value turn out when `CCOC(=O)C(=CNc1ccc2c(c1)CCN2C(C)=O)C(=O)OCC` was run?
The value was 12.1%.

`Cc1ccc(C(C(=O)NC2CCCC2)N(Cc2cccnc2)C(=O)c2snc(C(N)=O)c2N)o1` (centres unmarked) was tested. Which “hERG current change (%, negative = inhibition) at 1uM” value did it give?
Its value is 12.3%.

For `CCOc1ccc(NC(=S)NCCCN2CCN(c3ccc(OC)cc3)CC2)cc1`, which “hERG current change (%, negative = inhibition) at 1uM” value is on record?
The value was -29.3%.

With `COc1ccc(CCN(Cc2cc3ccc(C)cc3n3nnnc23)C(C)=O)cc1OC` as the molecule, how does the “hERG current change (%, negative = inhibition) at 1uM” value read?
The value was -12.5%.

Which “hERG current change (%, negative = inhibition) at 1uM” value does the source give for `Cc1ccc(NC(=O)c2ccccc2OCC(=O)Nc2cccc(Cl)c2C)nc1` here?
Its value is 15.1%.

`CC(C)C(C(=O)NC1=NCCS1)c1ccc(Cl)cc1` (centres unmarked) was tested. Which “hERG current change (%, negative = inhibition) at 1uM” value did it give?
The value was -26.6%.

`C/C(=N/NC(=O)c1sc(=S)n(C)c1C)c1ccccc1` was tested. Which “hERG current change (%, negative = inhibition) at 1uM” value did it give?
The value was 5.59%.

Which “hERG current change (%, negative = inhibition) at 1uM” value does the source give for `Cn1c(=O)cc(SCC(=O)N2CCN(c3ccccc3)CC2)c2ccccc21` here?
The value was 5.48%.

With `C/C(=N/NC(=O)CNC(=O)c1ccccc1)c1ccc(C)cc1` as the molecule, how does the “hERG current change (%, negative = inhibition) at 1uM” value read?
The value was 10.3%.

How did the “hERG current change (%, negative = inhibition) at 1uM” value turn out when `CN(C)S(=O)(=O)c1ccc(C(=O)NCCC(=O)N2CCCC2)cc1` was run?
The value was 10.5%.

Which “hERG current change (%, negative = inhibition) at 1uM” value does the source give for `COC(=O)c1c(N)n(-c2ccc(NC(C)=O)cc2)c2nc3ccccc3nc12` here?
Its value is 9.43%.

Which “hERG current change (%, negative = inhibition) at 1uM” value does the source give for `O=C(NNc1nc2ccccc2o1)c1ccccc1` here?
Its value is -14.5%.

`COc1ccc(OC)c(/C=C(\NC(=O)c2ccccc2)C(=O)N/N=C/c2ccc(C)s2)c1` was tested. Which “hERG current change (%, negative = inhibition) at 1uM” value did it give?
Its value is 7.76%.

How did the “hERG current change (%, negative = inhibition) at 1uM” value turn out when `c1ccc(Nc2nc(-c3ccccn3)cs2)cc1` was run?
The value was 4.92%.

`Cc1ccc(CNC(=O)Nc2cccs2)cc1` was tested. Which “hERG current change (%, negative = inhibition) at 1uM” value did it give?
Its value is 2.16%.

How did the “hERG current change (%, negative = inhibition) at 1uM” value turn out when `Oc1ccccc1OCc1nc2ccccc2s1` was run?
The value was -4.59%.

`O=C(CSc1nc(-c2ccccc2)cc(C(F)(F)F)n1)NCCN1CCOCC1` was tested. Which “hERG current change (%, negative = inhibition) at 1uM” value did it give?
Its value is -1.83%.

`COc1ccc(NS(=O)(=O)c2ccc(N/N=C(\C)c3ccncc3)c([N+](=O)[O-])c2)cc1` was tested. Which “hERG current change (%, negative = inhibition) at 1uM” value did it give?
Its value is 13.5%.

With `COc1ccc(CNC(=O)CN2C(=O)NC(C)(c3ccc(C(C)(C)C)cc3)C2=O)cc1` (centres unmarked) as the molecule, how does the “hERG current change (%, negative = inhibition) at 1uM” value read?
Its value is 10.7%.

`CCOC(=O)c1c(NC(=O)COC(=O)c2nccnc2N)sc2c1CCC2` was tested. Which “hERG current change (%, negative = inhibition) at 1uM” value did it give?
The value was 10.7%.

`COc1ccc(CCNC(=O)CN2C(=O)c3ccccc3S2(=O)=O)cc1` was tested. Which “hERG current change (%, negative = inhibition) at 1uM” value did it give?
Its value is 6.12%.

For `Cc1cc(O)c(C2(O)C(=O)Nc3ccccc32)cc1C` (centres unmarked), which “hERG current change (%, negative = inhibition) at 1uM” value is on record?
The value was 3.44%.

How did the “hERG current change (%, negative = inhibition) at 1uM” value turn out when `CCCC(=O)c1c[nH]c(C(=O)NCCc2ccccn2)c1` was run?
Its value is 25.3%.

With `C#CC(CC)(CC)NC(=O)NC1CCCCC1` as the molecule, how does the “hERG current change (%, negative = inhibition) at 1uM” value read?
Its value is 8.12%.

With `CCCNC(=S)N1CCC(Cc2ccccc2)CC1` as the molecule, how does the “hERG current change (%, negative = inhibition) at 1uM” value read?
The value was 19.4%.

`O=C1CCCCN1CCCC(=O)N1CCCC(Nc2ccc(F)cc2)C1` (centres unmarked) was tested. Which “hERG current change (%, negative = inhibition) at 1uM” value did it give?
Its value is 15.5%.

How did the “hERG current change (%, negative = inhibition) at 1uM” value turn out when `O=C(NC(=S)Nc1cccc([N+](=O)[O-])c1)c1ccco1` was run?
Its value is 10.1%.

Which “hERG current change (%, negative = inhibition) at 1uM” value does the source give for `Cc1ccc(C(=O)NCCNS(=O)(=O)c2ccccc2)cc1` here?
Its value is -1.17%.

With `COc1ccccc1NC(=O)C(C)OC(=O)c1nc2nc(C)cc(C)n2n1` (centres unmarked) as the molecule, how does the “hERG current change (%, negative = inhibition) at 1uM” value read?
The value was 18%.

With `Cc1cc(C)cc(OCC(=O)Nc2ccc3c4c(cccc24)CC3)c1` as the molecule, how does the “hERG current change (%, negative = inhibition) at 1uM” value read?
The value was 6.86%.

For `CCC(C)n1c(C)cc(C(N)=O)c1C` (centres unmarked), which “hERG current change (%, negative = inhibition) at 1uM” value is on record?
Its value is 7.39%.

Which “hERG current change (%, negative = inhibition) at 1uM” value does the source give for `COc1ccc(Cl)cc1C(=O)Nc1cccnc1` here?
The value was 15.2%.

For `CNC(=O)CSc1nc2sccc2c(=O)n1-c1ccccc1`, which “hERG current change (%, negative = inhibition) at 1uM” value is on record?
The value was 13.3%.

For `O=C(CNC(=O)c1ccccc1)NCC(=O)OCc1ccc(Cl)cc1`, which “hERG current change (%, negative = inhibition) at 1uM” value is on record?
The value was 4.64%.

`CC1(C)Cc2c(C#N)c(OCC(=O)c3ccccc3)nc(-c3ccoc3)c2CO1` was tested. Which “hERG current change (%, negative = inhibition) at 1uM” value did it give?
Its value is 6.54%.

`Cc1c(C(=O)c2ccccc2)oc2ccc3ccccc3c12` was tested. Which “hERG current change (%, negative = inhibition) at 1uM” value did it give?
The value was 10.4%.

`O=C1N(Cc2cccc(Cl)c2)C[C@@H]2C[C@@H](c3c[nH]c4ccccc34)N3CCC[C@@]123` was tested. Which “hERG current change (%, negative = inhibition) at 1uM” value did it give?
The value was -49.5%.

With `Cc1ccc(OCCCCNC2CCCCC2)c(C)c1.O=C(O)C(=O)O` as the molecule, how does the “hERG current change (%, negative = inhibition) at 1uM” value read?
Its value is -2.23%.

With `Brc1cc2c(cc1Br)OCCOCCOCCO2` as the molecule, how does the “hERG current change (%, negative = inhibition) at 1uM” value read?
The value was 5.78%.

How did the “hERG current change (%, negative = inhibition) at 1uM” value turn out when `CCNC(=S)N1CCc2ccccc2C1` was run?
Its value is 9.59%.

For `CCOc1ccc(N(CC(=O)Nc2cccc(Br)c2)S(C)(=O)=O)cc1`, which “hERG current change (%, negative = inhibition) at 1uM” value is on record?
The value was 12.8%.

`COc1ccc(OC)c(C(c2nnnn2C2CCCC2)N2CCN(c3ccccc3)CC2)c1.Cl` (centres unmarked) was tested. Which “hERG current change (%, negative = inhibition) at 1uM” value did it give?
The value was -2.96%.

How did the “hERG current change (%, negative = inhibition) at 1uM” value turn out when `CC(C)C(NC(=O)c1ccc(Br)cc1)C(=O)NC1=NCCS1` (centres unmarked) was run?
Its value is 2.57%.

For `CCc1ccc(/C=N/NC(=O)Cc2cccn2C)cc1`, which “hERG current change (%, negative = inhibition) at 1uM” value is on record?
Its value is 8.8%.

For `NC(=O)c1oc2ccccc2c1NC(=O)c1ccccc1`, which “hERG current change (%, negative = inhibition) at 1uM” value is on record?
The value was 8.45%.

Which “hERG current change (%, negative = inhibition) at 1uM” value does the source give for `COc1ccc(Oc2ccc(C(F)(F)F)cc2NC(=O)CC(CC(=O)O)c2ccccc2)cc1` (centres unmarked) here?
Its value is 5.26%.

How did the “hERG current change (%, negative = inhibition) at 1uM” value turn out when `COC(=O)CC(NS(=O)(=O)c1cccs1)c1ccc2c(c1)OCO2` (centres unmarked) was run?
Its value is 9.58%.

How did the “hERG current change (%, negative = inhibition) at 1uM” value turn out when `Cc1ccnc(NC(=O)c2ccccc2[N+](=O)[O-])c1` was run?
Its value is 23.7%.
